Paper PMC12136788
The list shows a part of the results.

T1: UNK ZnF1-3 (human, UniProt Q9C0B0 31-174)
T1 sequence: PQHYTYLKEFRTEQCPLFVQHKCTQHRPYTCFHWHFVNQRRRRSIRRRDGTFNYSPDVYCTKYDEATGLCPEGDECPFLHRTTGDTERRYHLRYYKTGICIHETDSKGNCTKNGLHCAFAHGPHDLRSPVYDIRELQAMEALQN

B1: chr9:33280828:33280829:+_ENSG00000086065_ENST00000223500|hu_hu|motif|central (ssRNA)
RNA: GGGAGUUCUACAGUCCGACGAUCUCCUAGUCCCAUAAUAUGUGUUUGUUUUACAAGAUAUGCUUGAAUGAUGCAAAUCGGUGAAGCAGGGAUCUGUGGCAAUCCAAAUUCAUCCACCAGAACUCCAUCCUUGUUUUUUGUAUCCAACAGAGGAUUGAGCAUCA
B2: 21786388_21788020_588_3pUTR_ENSMUSG00000028248_ENSMUST00000108229|mouse|control|control (ssRNA)
RNA: GGGAGUUCUACAGUCCGACGAUCUUGCCAAUAAGGAGGAUGAAAUCCACCUUGUGGUGGACCAAAAGCAGCCCCAUGCUGAUAGUCAAACUGGUUCACCGGCCCCACUGCAAAGUUAUCAGGUGGUCCACCAAAGUUGUGAUUCAACAGAGGAUUGAGCAUCA
B3: chr2:232320318:232320319:-_ENSG00000115053_ENST00000322723|hu_hu|hu_hu_hu_mus_True|58_78 (ssRNA)
RNA: GGGAGUUCUACAGUCCGACGAUCACUAUUAAAGUCUACAAAACCAAACCCUUUGGAGGACCCAGUUUCCCGAUCAGUAACUAUCCUUGCACGAACAGAGCCCUCAAAUGAUUCUUUUAAGGUCUCUUCAGUGGUAUCCUCAGACAACAGAGGAUUGAGCAUCA
B4: chr3:133126781:133126782:-_ENSMUSG00000040943_ENSMUST00000098603|mus_hu|FALSE|FALSE (ssRNA)
RNA: GGGAGUUCUACAGUCCGACGAUCUAUUUAUAACCAUCCUCAGAUCUUAUAAACCAAACAUCUCAUGAAAAUGAAAUGAAACUAGUUUUUAAAAAAGCAUAGAAAAAUGCACACAGAAGUUAUCUUAGUGUCAAACUGCAAAAGCAACAGAGGAUUGAGCAUCA
B5: chr9:120860725:120860726:+_ENSMUSG00000006932_ENSMUST00000007130|mus_mus|FALSE|FALSE (ssRNA)
RNA: GGGAGUUCUACAGUCCGACGAUCCAUUUUAGCUCCUUCCUGAUGGAGCAGGAGAUUAUGCAGUGUCGUGAUGGCGUAGAACAGUACAGAAUCCACUGGUGACCCAAGCAUUUUCACCAGCGCUGGGAUGCCACCAGACUUAAACAACAGAGGAUUGAGCAUCA
B6: 134350691_134351898_1818_CDS_ENSMUSG00000042046_ENSMUST00000045110|mouse|control|control (ssRNA)
RNA: GGGAGUUCUACAGUCCGACGAUCGCUGAGGCUGUCGAUGGCUUCCUGGGCCACCUUCCUCUUCCACUCUAGAGUGAUGGUGGGUGGGUUCACCCAUGUGAUACGCUGGAUGAUCUGCUUGAUUUGUUCCCAAAGCAUCCGAGUCAACAGAGGAUUGAGCAUCA
B7: chr7:45139798:45139799:-_ENSG00000136270_ENST00000258770|hu_hu|FALSE|FALSE (ssRNA)
RNA: GGGAGUUCUACAGUCCGACGAUCCAACACCAAAAUUAAAGGUUUAUUAUACACAAGAGGACGUUCUGUCCCUCAGAGUGGCUGGCCACCCUCCCCACUCUGGCCAAGGUCCUGCACAGAGGUUUGUCCUCAAGGGUGACCCUUCAACAGAGGAUUGAGCAUCA
B8: 75562132_75563920_2274_CDS_ENSG00000119638_ENST00000238616|human|control|control (ssRNA)
RNA: GGGAGUUCUACAGUCCGACGAUCCUCAACGAUGAGAAUGGUAUGCCAUCCACGGCAAGACAGGUCCGGGACAUGAUGCAGAGAUCCAAAAAUAGGCCGAGGCCAUGAGGUACAGAUAUCAGAGCCAUGUGGUCUCUCUGUGGGCAACAGAGGAUUGAGCAUCA
B9: chr1:46159212:46159213:+_ENSG00000159596_ENST00000372025|hu_mus|hu_hu_hu_mus_True|1_58 (ssRNA)
RNA: GGGAGUUCUACAGUCCGACGAUCUCUGAUCCCUCCCAAGAAAGCUAGGAAACCGGCUCCAUAAGCCAUCUGAGUGAAAGCUAAUAUGGGGAUAUAAGACUUUGUUAUUACCAUGAGAAGUGGGGGAGCAGUAAAGGGGAUUAGCAACAGAGGAUUGAGCAUCA
B10: chr15:52101961:52101962:+_ENSG00000128872_ENST00000249700|hu_mus|FALSE|FALSE (ssRNA)
RNA: GGGAGUUCUACAGUCCGACGAUCGAGUUAUUCAACCUCCAAAGGGAUUGUGACCCACAGGUUGAGAACCACUGACUUAGCGACAUAGAGAGAAGGGAAACAAGAAGGAUGCUUUGUCAUGAAAGGAGAGGAAAAGGAAGGACACAACAGAGGAUUGAGCAUCA
B11: chr1:95363388:95363389:-_ENSG00000117519_ENST00000538964|hu_mus|FALSE|FALSE (ssRNA)
RNA: GGGAGUUCUACAGUCCGACGAUCCCGAGGGUAGUCGUCUGGGUACUCGCCAUGAUAUUCAUCGGGGUAUUCUGCCUGAUAAUCGCUAUCACUGAUUUCCGACCCAUUGGUGCCCGUGCCCUGGCUUCCGUUGUGAAUGACAGGCAACAGAGGAUUGAGCAUCA
B12: chr9:115598534:115598535:+_ENSG00000148158_ENST00000374232|hu_hu|FALSE|FALSE (ssRNA)
RNA: GGGAGUUCUACAGUCCGACGAUCCAGCUUGUAGCCGCCAGUGACGUGCUUGACUGACUCGCCCAUUCUGGUCAGCAAUGCUAUCCCUUGCUUCUUGUAGGCGUUCAGGUCCUUAGCAGUAAGGAAAAUAUUAAAGUGUUCAUUCAACAGAGGAUUGAGCAUCA
B13: chr7:75932113:75932114:+_ENSG00000106211_ENST00000248553|hu_hu|hu_hu_hu_mus_False|18_38 (ssRNA)
RNA: GGGAGUUCUACAGUCCGACGAUCCUGCGACCACUCAUCGGGCAACCGGGGCACCCCGAAAGCUUGAUCGAAGAGGCGGCUGUGUGCAGGGUACCAGCGGAAGGGGUGUUCCCAGCUGCCCCGCAGGAGCAGCGAGAAGGGCACCAACAGAGGAUUGAGCAUCA
B14: chr2:202488911:202488912:-_ENSG00000155755_ENST00000286196|hu_mus|hu_hu_hu_mus_False|98_108 (ssRNA)
RNA: GGGAGUUCUACAGUCCGACGAUCAUUUAACAUUUUUCAUAAUAUUGCAGUAGCAUUUCAGCAUUAUGUAACAAAAGCUCAAUUGUAAAUACAUGUAUCUUAUAAAAAUACACUUAAAAACACGAGUGGGGAGCGCAGGCGCCACAACAGAGGAUUGAGCAUCA
B15: chr4:86222814:86222815:+_ENSMUSG00000070934_ENSMUST00000091064|mus_mus|motif|central (ssRNA)
RNA: GGGAGUUCUACAGUCCGACGAUCGAAUAUUAAAGACAAAUGAUGCAAAAAAAAAAAAAACACCGUAAUUCAGCAUUUUACGGAAGAGCAUUUGGCAUUAUUUCAACGCAUGAGGAGGCUGUGCUUGGGCCCAUCUACUCUUUCCAACAGAGGAUUGAGCAUCA
B16: 119848481_119848852_3695_CDS_ENSMUSG00000033902_ENSMUST00000066058|mouse|control|control (ssRNA)
RNA: GGGAGUUCUACAGUCCGACGAUCGCCUUUCAGCUGCUCACCAGACACCUGUGAUACCUGGUCAGGUCUGGACGUCAGGGCCAAGCCUGAGGAGGAUAGGGAUGGUUCCCUGAGUGGGGAGGUCUGCACUUGCAGAAGGAAUCGCAACAGAGGAUUGAGCAUCA
B17: 173384412_173384532_3865_3pUTR_ENSG00000113742_ENST00000334035|human|control|control (ssRNA)
RNA: GGGAGUUCUACAGUCCGACGAUCCAAAGCUAGAAUUUUAUUUAUAAUAAAGCAUGCAUUACUUGAUGAAGUUGGCACUUCAAACACUGACUAUGUCCCAUGCUAAAUUCGGAAACUGUAAUGUUAUUUUAGUUUAUAGGAAGACAACAGAGGAUUGAGCAUCA
B18: chr18:56819859:56819860:+_ENSG00000166562_ENST00000588875|hu_mus|hu_hu_hu_mus_True|68_68 (ssRNA)
RNA: GGGAGUUCUACAGUCCGACGAUCAACCUUGAUUACUCUGUGAACUAUCGGAAUGUCUCUUCCUUCAACUUUAAAAACAACUAUUUCACCAGCUCUGAUGGGGUCCUCCCGGAAAUUCGUGAGGAACAGCAGAUCUCCUCUGUGCAACAGAGGAUUGAGCAUCA
B19: chr2:42509997:42509998:+_ENSG00000143924_ENST00000318522|hu_mus|hu_hu_hu_mus_True|58_88 (ssRNA)
RNA: GGGAGUUCUACAGUCCGACGAUCUCGCUGAGUCCUCUCCUCAUAAUUAAAUAGUACUACCACUGAGGCGAUAAAAUAAACUAUUUUCCCUGUGGGAAGCAGGUAUACAUUCGCUCUACAGUCCUUUCCUCGAUAACCGUAUACCAACAGAGGAUUGAGCAUCA
B20: chr10:99542671:99542672:+_ENSMUSG00000019966_ENSMUST00000105283|mus_mus|FALSE|FALSE (ssRNA)
RNA: GGGAGUUCUACAGUCCGACGAUCACUAGUGUCAGAUGCCACCAUAAAGUCCUUAAAGGCAUCAAUGGAUCUAUUGAAAAUACUAAAGAAUUCUUCAGGAGUAAAGGAUCUAGUUUCUGGCCUCUUCGGAGAUUCUUUUAUAUUCAACAGAGGAUUGAGCAUCA
B21: 113158224_113159022_837_CDS_ENSMUSG00000010936_ENSMUST00000034190|mouse|control|control (ssRNA)
RNA: GGGAGUUCUACAGUCCGACGAUCUGGCAGGUAAUCCAGCAGGUUAAUGUCUGGCACCGACACCAGAACCAGGAUCCAGGAGAUGAUGAACUGUCGGGCGUAUUGGUUGUUGGAGUAAAUCCUCUCCCGCAAAAGGGGGAUGAACAACAGAGGAUUGAGCAUCA
B22: chr1:135197953:135197954:+_ENSMUSG00000041757_ENSMUST00000038295|mus_hu|FALSE|FALSE (ssRNA)
RNA: GGGAGUUCUACAGUCCGACGAUCGAGCCAAUCCCACCUGCCAGUCUGCAGGGGAGAAAGGGCAGGUUUGGGGUGCUUGAACUGUGAAGAUGGGAAAUACAGCCAAGGGUCACGUUUAAAAAACCUGCUAGAAGUGAAGAUCGGCAACAGAGGAUUGAGCAUCA

The binders below were run against T1, UNK ZnF1-3 (assay: nsRBNS (natural sequence RNA bind-n-seq); RBNS binding buffer (assumed for nsRBNS): 25 mM Tris pH 7.5, 150 mM KCl, 3 mM MgCl2, 0.01% Triton X-100, 500 ug/ml BSA, 20 U/ml SUPERase-In, 4 C; UNK is unkempt and MSI1 is Musashi-1; names of the RNAs are library labels; protein concentration not given here; high values mean tight binding).

Binder	binding signal [enrichment R]
B1	0.987
B2	0.934
B3	0.603
B4	0.845
B5	0.629
B6	0.479
B7	1.29
B8	1.16
B9	1.6
B10	2.63
B11	0.653
B12	0.743
B13	1.15
B14	0.768
B15	2.38
B16	0.985
B17	1.02
B18	0.722
B19	1.51
B20	0.967
B21	1.29
B22	1.19
